Here are results for 1 molecule from CN112442122A (SHANGHAI NOVAMAB BIOPHARMACEUTICALS CO LTD, dated 2021).

The target in test [1] is T1, 人PD-1 (on CHOZn/PD-1 stably transfected cells) (human, UniProt Q15116 25-288). In words: cell-based or functional assay.
Test [2] has as its target T1, 人PD-1 (on CHOZn/PD-1 stably transfected …). Nature of the test: flow cytometry; competition with hPD-L1-Biotin on CHOZn/PD-1 cells (method of Example 5).

T1 sequence (Q15116 25-288): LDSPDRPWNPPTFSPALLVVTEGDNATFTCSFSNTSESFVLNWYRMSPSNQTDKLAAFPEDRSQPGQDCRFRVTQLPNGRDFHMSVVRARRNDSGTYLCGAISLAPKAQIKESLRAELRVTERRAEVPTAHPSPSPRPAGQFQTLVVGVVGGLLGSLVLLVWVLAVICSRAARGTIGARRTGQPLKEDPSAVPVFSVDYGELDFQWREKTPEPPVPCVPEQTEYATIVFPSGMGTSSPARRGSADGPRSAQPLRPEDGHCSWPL

B1: 人源化PD-1纳米抗体(HuNb-Fc) (Fc fusion)
chain: EVQLQESGGGLVQPGGSLRLSCAASGYTYSSYYMGWFRQAPGKGLEGVAAIDRDGRTSYADSVKGRFTISRDNAKNTLYLQMNSLRAEDTAVYYCAAVLVLSGYYSDYGLVPPPFEYNYWGQGTLVTVSS[human IgG4 Fc with S228P (EU numbers) not listed]
notes: also called 二价抗体HuNb-Fc
For B1, the “Luciferase reporter assay EC50” value in test [1] amounted to 0.699 µg/mL. In test [2], the IC50 was determined as 1.03 µg/mL.

As a reminder, the IC50 is the concentration needed to halve the response being measured. Lower therefore signals inhibition by little substance.
